The list shows a part of the results. Viral Rep nickase domains cut single-stranded DNA in vitro for 1 h at 37 °C with 3 µM enzyme; only the middle of the 90-letter strands is printed. The score is log2 (uncut reads / reads without enzyme); the lower, the more was cut; hits are not called. Counts are relative to all reads; where an enzyme cuts many sequences, the uncut ones exceed 0.

Assay in all cases: uncleaved DNA left, log2 of reads against the no-enzyme library (log2 ratio); higher = less cleavage (more negative = more Rep cleavage of the k-mer); sequences stand for … in CTCGTCCG…ACCGGAGA
The test system of experiment [1] is T1, Rep nickase domain of Muscovy duck circovirus.
T1 sequence (residues 1-111, tag not shown): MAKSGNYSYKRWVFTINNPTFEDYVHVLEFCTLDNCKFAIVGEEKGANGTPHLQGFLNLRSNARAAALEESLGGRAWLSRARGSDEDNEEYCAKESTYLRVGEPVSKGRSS
How it is done: (§1)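 A pool of 90-nt single-stranded DNAs with seven random bases just before the constant AC of the nick site (name = the seven bases) was cut by 3 µM recombinant His6-SUMO-tagged Rep nickase domain (300 nM DNA, 50 mM HEPES pH 8.0, 50 mM NaCl, 1 mM MnCl2, 1 h, 37 °C, three replicates). Uncut DNA was amplified and sequenced.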

The subject of experiment [2] is T2, Rep nickase domain of banana bunchy top virus.
T2 sequence (residues 1-94, tag not shown): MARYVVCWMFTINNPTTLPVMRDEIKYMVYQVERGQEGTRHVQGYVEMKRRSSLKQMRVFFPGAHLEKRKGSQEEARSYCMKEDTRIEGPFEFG
How it is done:
as §1

Experiment [3] has as its system T3, Rep nickase domain of cabbage leaf curl virus.
T3 sequence (residues 1-116, tag not shown): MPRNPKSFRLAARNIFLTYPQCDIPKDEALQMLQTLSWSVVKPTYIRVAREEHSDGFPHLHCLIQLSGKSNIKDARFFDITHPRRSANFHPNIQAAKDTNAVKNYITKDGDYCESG
How it is done: as §1
The subject of experiment [4] is T4, Rep nickase domain of chickpea chlorotic dwarf virus.
T4 sequence (residues 1-124, tag not shown): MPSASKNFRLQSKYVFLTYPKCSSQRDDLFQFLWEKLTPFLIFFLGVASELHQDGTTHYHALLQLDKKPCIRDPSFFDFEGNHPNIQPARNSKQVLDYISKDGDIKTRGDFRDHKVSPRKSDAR
The method, then: as §1
Experiment [5] relates to T5, Rep nickase domain of faba bean necrotic yellows virus.
T5 sequence (residues 1-98, tag not shown): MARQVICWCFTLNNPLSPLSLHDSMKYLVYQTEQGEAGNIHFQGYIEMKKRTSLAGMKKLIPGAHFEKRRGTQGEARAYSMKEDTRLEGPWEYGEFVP
The method, then:
as §1

For experiment [6], the system named is T6, Rep nickase domain of maize striate mosaic virus.
T6 sequence (residues 1-117, tag not shown): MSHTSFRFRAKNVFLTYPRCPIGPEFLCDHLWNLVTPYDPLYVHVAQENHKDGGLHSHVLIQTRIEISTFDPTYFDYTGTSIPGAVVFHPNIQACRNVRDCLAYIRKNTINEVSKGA
The method, then:
as §1

Experiment [7] has as its system T7, Rep nickase domain of porcine circovirus 2.
T7 sequence (residues 2-116, tag not shown): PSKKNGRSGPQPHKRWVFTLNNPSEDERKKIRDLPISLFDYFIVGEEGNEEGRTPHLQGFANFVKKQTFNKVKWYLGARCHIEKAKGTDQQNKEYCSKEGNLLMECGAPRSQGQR
How it is done:
as §1

For experiment [8], the system named is T8, Rep nickase domain of tomato golden mosaic virus.
T8 sequence (residues 1-124, tag not shown): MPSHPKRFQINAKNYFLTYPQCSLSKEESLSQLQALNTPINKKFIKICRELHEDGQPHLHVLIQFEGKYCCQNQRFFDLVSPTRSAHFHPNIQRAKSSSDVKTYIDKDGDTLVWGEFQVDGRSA
The method, then:
as §1

Experiment [9] has as its system T9, Rep nickase domain of tomato yellow leaf curl virus.
T9 sequence (residues 1-136, tag not shown): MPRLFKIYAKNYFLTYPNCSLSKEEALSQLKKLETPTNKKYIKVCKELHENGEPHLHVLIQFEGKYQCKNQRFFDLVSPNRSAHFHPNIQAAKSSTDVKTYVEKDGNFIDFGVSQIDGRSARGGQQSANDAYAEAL
How it is done:
as §1

Experiment [10] has as its system T10, Rep nickase domain of wheat dwarf virus.
T10 sequence (residues 1-137, tag not shown): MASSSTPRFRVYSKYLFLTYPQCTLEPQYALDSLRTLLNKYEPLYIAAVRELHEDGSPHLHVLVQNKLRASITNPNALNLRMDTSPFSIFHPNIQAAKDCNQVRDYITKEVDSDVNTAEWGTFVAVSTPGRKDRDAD
How it is done: as §1

For GCCTCAT, the “uncleaved DNA left (log2)” value is -0.0975 in experiment [1]; 0.0209 in [2]; 0.115 in [3]; 0.461 in experiment [4]; -0.0433 in experiment [5]; 0.66 in experiment [6]. Also, the “uncleaved DNA left (log2)” value in [7] was -0.147; in experiment [8], -0.147; in experiment [9], -0.112; in experiment [10], 0.101.

ACGGATG: the “uncleaved DNA left (log2)” value in experiment [1] is 0.155; in [2] it was 0.017; in experiment [3], -0.246; in [4], 0.171; in [5] it was 0.0576; in [6], -0.345. Besides, the “uncleaved DNA left (log2)” value in experiment [7] is 0.174; in experiment [8], 0.13; in experiment [9], -0.101; in experiment [10], -0.0984.

TCCCGGG: the “uncleaved DNA left (log2)” value in experiment [1] was 0.047; in experiment [2], -0.0419; in experiment [3], 0.315; in experiment [4], 0.492; in experiment [5], -0.0691; in experiment [6], 0.192. Moreover, the “uncleaved DNA left (log2)” value in experiment [7] is 0.157; in [8] it was 0.0105; in [9] it was -0.0668; in experiment [10], 0.074.

Consider TGCGCGA, for which the “uncleaved DNA left (log2)” value in experiment [1] was 0.0389; in experiment [2] it was -0.0675; in experiment [3], -0.743; in [4], -0.473; in experiment [5], -0.0674; in experiment [6], -0.833. For the same sequence, the “uncleaved DNA left (log2)” value is 0.112 in experiment [7], -0.162 in [8], -0.0554 in experiment [9] and -0.134 in experiment [10].

CAATTTC: the “uncleaved DNA left (log2)” value in experiment [1] is -0.454; in experiment [2], 0.0826; in experiment [3], -3.23; in [4], -3.02; in experiment [5], 0.0512; in experiment [6], -1.89. The “uncleaved DNA left (log2)” value is -1.26 in experiment [7], -1.68 in [8], 0.0623 in experiment [9] and -1.43 in [10].

As to GTAGGGT, the “uncleaved DNA left (log2)” value was 0.098 in [1]; 0.00641 in [2]; 0.287 in experiment [3]; 1.11 in [4]; 0.0557 in experiment [5]; 1.7 in experiment [6]. Besides, the “uncleaved DNA left (log2)” value is -0.0544 in [7], 0.129 in experiment [8], 0.118 in experiment [9] and 0.0825 in experiment [10].

Consider AGTCCAA, for which the “uncleaved DNA left (log2)” value in [1] came out at 0.104; in experiment [2], 0.118; in experiment [3] it was 0.332; in experiment [4], 0.59; in experiment [5], 0.0515; in [6], 0.14. In addition, the “uncleaved DNA left (log2)” value in experiment [7] is -0.984; in [8], 0.098; in experiment [9], 0.08; in experiment [10], 0.261.

Turning to CTTACGA, the “uncleaved DNA left (log2)” value in experiment [1] is -0.0439; in experiment [2], -0.0661; in [3] it was -0.246; in experiment [4] it was -1.31; in experiment [5], -0.0523; in [6], -0.948. Moreover, the “uncleaved DNA left (log2)” value was 0.0705 in experiment [7], -0.0455 in experiment [8], -0.121 in [9] and -0.0119 in experiment [10].

ATGAGCA: the “uncleaved DNA left (log2)” value in experiment [1] was -0.0322; in [2], -0.0217; in [3], -0.376; in [4] it was -0.909; in experiment [5], 0.0121; in experiment [6], -0.974. Moreover, the “uncleaved DNA left (log2)” value in experiment [7] was -2.08; in experiment [8], -0.0189; in experiment [9], -0.0492; in experiment [10], -0.0163.

Take TTCTTAA: the “uncleaved DNA left (log2)” value in experiment [1] is -0.0461; in experiment [2] it was -0.00439; in experiment [3], 0.0788; in experiment [4], -0.079; in experiment [5], -0.0508; in experiment [6] it was 0.0505. The “uncleaved DNA left (log2)” value was -0.11 in experiment [7], -0.0674 in experiment [8], -0.162 in experiment [9] and -0.011 in [10].

In the case of GGGGGTA, the “uncleaved DNA left (log2)” value in experiment [1] is -0.0502; in experiment [2], 0.132; in experiment [3], 0.763; in [4], 1.74; in experiment [5], -0.0436; in [6] it was 2.18. Further, the “uncleaved DNA left (log2)” value is 0.231 in [7], 0.119 in experiment [8], -0.0414 in [9] and 0.12 in experiment [10].

As to GAAATGG, the “uncleaved DNA left (log2)” value in [1] was 0.102; in experiment [2], 0.0969; in [3], 0.294; in experiment [4], 0.538; in [5], 0.106; in experiment [6], -0.00609. Also, the “uncleaved DNA left (log2)” value in experiment [7] was determined as 0.191; in [8], 0.0492; in [9] it was 0.0268; in experiment [10], 0.174.

With GGCGTTT, the “uncleaved DNA left (log2)” value is -0.0941 in [1]; -0.108 in [2]; 0.247 in experiment [3]; 0.447 in [4]; -0.118 in experiment [5]; 1.16 in experiment [6]. The “uncleaved DNA left (log2)” value is -0.139 in [7], -0.0521 in experiment [8], -0.136 in experiment [9] and -0.0316 in experiment [10].

With CGGCTCT, the “uncleaved DNA left (log2)” value in [1] was -0.0114; in experiment [2], -0.176; in experiment [3] it was -6.82e-05; in experiment [4], -0.652; in experiment [5], -0.0945; in [6] it was 0.371. Also, the “uncleaved DNA left (log2)” value in experiment [7] is -0.0578; in [8], -0.0254; in [9], -0.0288; in experiment [10], 0.0228.

Turning to ATGGAGA, the “uncleaved DNA left (log2)” value is -0.0405 in experiment [1]; -0.055 in experiment [2]; -0.105 in [3]; 0.567 in experiment [4]; -0.0168 in experiment [5]; -0.127 in experiment [6]. In addition, the “uncleaved DNA left (log2)” value in [7] is 0.193; in [8] it was 0.0509; in experiment [9] it was -0.122; in experiment [10], -0.0637.

These data come from the supplement of paper PMC7826260.
